Data reported in publication PMC4336329 (PLoS ONE, 2015).
About 2,200 (0.71%) of roughly 310,000 compounds showed an effect of 50% or more. The effect is printed as a negative number. The list shows a part of the results.

The compounds below were run against human ether-à-go-go-related gene (hERG) potassium channel (human, UniProt Q12809) (assay: primary screen, population patch clamp on CHO cells stably expressing hERG).
human ether-à-go-go-related gene (hERG) potassium channel, sequence (Q12809 whole entry, looked up): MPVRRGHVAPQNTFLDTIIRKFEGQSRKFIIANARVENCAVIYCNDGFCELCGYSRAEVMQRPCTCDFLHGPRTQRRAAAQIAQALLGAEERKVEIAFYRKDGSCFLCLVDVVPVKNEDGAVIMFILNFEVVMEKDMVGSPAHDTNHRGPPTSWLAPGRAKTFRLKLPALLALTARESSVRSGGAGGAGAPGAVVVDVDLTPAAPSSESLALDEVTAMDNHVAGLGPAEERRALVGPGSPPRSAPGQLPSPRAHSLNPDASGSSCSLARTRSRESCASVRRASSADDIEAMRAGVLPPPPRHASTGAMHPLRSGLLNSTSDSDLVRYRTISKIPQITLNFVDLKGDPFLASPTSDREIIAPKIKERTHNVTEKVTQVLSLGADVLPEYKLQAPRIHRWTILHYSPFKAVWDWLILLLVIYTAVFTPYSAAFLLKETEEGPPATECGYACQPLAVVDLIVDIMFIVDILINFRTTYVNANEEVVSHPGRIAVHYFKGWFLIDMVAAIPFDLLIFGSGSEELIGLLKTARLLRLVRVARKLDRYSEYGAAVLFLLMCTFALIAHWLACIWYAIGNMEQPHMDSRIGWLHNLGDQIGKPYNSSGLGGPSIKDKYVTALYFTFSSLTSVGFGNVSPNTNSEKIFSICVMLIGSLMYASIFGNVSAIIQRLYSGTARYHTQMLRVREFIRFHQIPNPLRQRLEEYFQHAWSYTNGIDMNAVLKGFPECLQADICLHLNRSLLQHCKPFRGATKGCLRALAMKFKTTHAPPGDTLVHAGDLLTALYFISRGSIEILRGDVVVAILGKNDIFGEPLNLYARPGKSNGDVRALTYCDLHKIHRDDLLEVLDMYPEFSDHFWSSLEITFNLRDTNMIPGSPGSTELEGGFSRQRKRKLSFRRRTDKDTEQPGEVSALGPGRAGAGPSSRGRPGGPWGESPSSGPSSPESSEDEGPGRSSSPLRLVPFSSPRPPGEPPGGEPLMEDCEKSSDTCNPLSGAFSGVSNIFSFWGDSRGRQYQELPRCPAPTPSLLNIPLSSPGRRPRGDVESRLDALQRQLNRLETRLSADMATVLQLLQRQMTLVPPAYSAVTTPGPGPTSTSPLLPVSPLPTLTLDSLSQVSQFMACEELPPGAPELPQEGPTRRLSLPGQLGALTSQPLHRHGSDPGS

Compound	hERG current change (%, negative = inhibition) at 1uM [%]
COc1cccc(NS(=O)(=O)c2ccc(-c3coc(C)n3)cc2)c1	16.8
O=C(COc1ccc(S(=O)(=O)N2CCOCC2)cc1)NCc1ccccn1	8.36
CCOC(=O)c1cnc2c(c(C3CC3)nn2C)c1N1CCOCC1	15.2
N#Cc1cc(C(=O)c2cc(Cl)ccc2O)cn(CC2CCCO2)c1=O (stereo not shown)	6.98
Cc1ccc(N(C(=O)CNC(=O)c2ccco2)C(C(=O)NC2CCCC2)c2ccncc2)cc1 (stereo not shown)	15.9
CSCC[C@@H](Nc1nc(-c2ccccc2)nc2c1oc1ccccc12)C(=O)O.Cl	-0.143
CCCCn1c(N)c(N(CC(C)C)C(=O)c2oc3c(Cl)cccc3c2C)c(=O)[nH]c1=O	7.34
CNc1nnc(CSc2nc3ccccc3s2)s1	5.44
O=C(O)C(=O)O.OC(CNc1ccccc1)Cn1ccc2ccccc21 (stereo not shown)	2.97
COC(=O)C(/C=N/OCc1ccc([N+](=O)[O-])cc1)NC(=O)c1ccccc1 (stereo not shown)	-11.9
O=C(CNCc1ccc(Cl)cc1)Nc1ccc(C(=O)N2CCCCC2)cc1.O=C(O)C(=O)O	12.9
CCCCn1nc(C(=O)N(C)CC(=O)Nc2cccc(F)c2)c2ccccc2c1=O	16
O=C(NCC1CCCO1)c1ccc2c(=O)n(Cc3cccc(Br)c3)c(=S)[nH]c2c1 (stereo not shown)	11.1
CC(C)C(C(=O)Nc1sc2c(c1C#N)CCCCC2)N1C(=O)c2ccccc2C1=O (stereo not shown)	3.9
O=C(CSc1nc2nc(-c3cccs3)cc(C(F)(F)F)c2c(=O)[nH]1)Nc1c(F)c(F)c(F)c(F)c1F	7.2
CC(NC(=O)c1ccco1)C(=O)Nc1nc(-c2ccccn2)cs1 (stereo not shown)	-0.934
Cc1ccc(S(=O)(=O)CC(C)N2CCOCC2)c(S(=O)(=O)CC(C)N2CCOCC2)c1 (stereo not shown)	-4.92
O=C(OCc1ccc(COC(=O)c2ccccn2)cc1)c1ccccn1	18.1
O=C(CCCOc1ccccc1)NCCc1nc2ccccc2[nH]1	13.4
Cc1ccc(NS(=O)(=O)c2ccc(Cl)c(C(=O)Nc3cccc(C(=O)O)c3)c2)cc1	14.2
C=CC#CC1(O)CC(C)N(C)CC1C (stereo not shown)	7.31
CCn1cc(C(=O)NC(=S)Nc2cccc(O)c2)cn1	7.86

Compound	hERG current change (%, negative = inhibition) at 1uM [%]
COCCNC(=O)C(c1ccc(OC)cc1)N(Cc1ccco1)C(=O)CCC(=O)Nc1ccccn1 (stereo not shown)	18.7
Cc1cccc(OCCn2ccnc2)c1	12.7
CN(Cc1ccco1)C(=O)Cn1nc(-c2ccc(Cl)cc2)ccc1=O	-12.2
O=C(OCc1cc(=O)n2c(n1)sc1ccccc12)c1ccc2c(=O)n3c(nc2c1)CCC3	18.1
O=C(/C(=C/c1ccccc1)n1cncn1)c1ccc(Cl)cc1Cl	1.58
CCCC(=O)N1CCN(c2ccc(NC(=O)C(C)(C)C)cc2Cl)CC1	7.54
CC(c1ccon1)N(C)Cc1cn(Cc2ccccc2)nc1-c1ccc2c(c1)OCO2 (stereo not shown)	4.83
O=C(CSc1ccccn1)N/N=C/C=C/c1ccccc1	-3.19
O=C(COC(=O)C1COc2ccccc2O1)NC(=O)NC1CCCCC1 (stereo not shown)	-0.718
O=C(CN1C(=O)S/C(=C\c2ccccc2F)C1=O)Nc1ccccc1O	17
Cc1c(NC(=O)COC(=O)C2=COCCO2)cccc1[N+](=O)[O-]	14.3
CCCN(c1ccccc1F)S(=O)(=O)c1c[nH]c(C(=O)OC)c1	12.4
CC(C)C(C(=O)O)N1CCS(=O)(=O)CC1 (stereo not shown)	-4.78
CC1SCC(=O)N(CC(=O)NCCc2ccccc2)C1=O (stereo not shown)	-6.6
Cc1cccc(NC(=O)CSc2cc(C(=O)c3nccn3C)c3ccccc3n2)c1	13
CC(C)(C)NCC(O)COc1ccccc1C(=O)CCc1ccccc1.Cl (stereo not shown)	-33.4
CCc1c(C)nc2ncnn2c1NCCc1ccc(OC)cc1	7.5
CC(=O)Nc1ccc(N(C(=O)CNC(=O)c2cccs2)C(C(=O)NC(C)(C)C)c2ccccc2)cc1 (stereo not shown)	7.56
O=C(CSc1nc2ccccc2c(=O)n1-c1ccc(F)cc1)NCc1ccco1	2.22
COc1ccccc1N1CCN(C(=O)c2cccc(N3C(=O)C4C5C=CC(C5)C4C3=O)c2)CC1 (stereo not shown)	14
COc1ccc(NC(=O)C2CCN(S(C)(=O)=O)CC2)cc1Cl	1.51
